# Results published in PubChem BioAssay AID2546 (National Center for Advancing Translational Sciences (NCATS), 2010).
# Several values for one entry are separate records, joined by “and”; a condition that tells them apart may be missing. Equal values may be shown once. Screen size: about 310,000 compounds; about 11,000 (3.5%) were called active. The shares of active, inactive and inconclusive entries below differ from those in the screen. Calls come from the whole dose curve; as a rule, active = well fitted inhibition curve with a large enough effect; inconclusive = small, poorly fitted or top-dose-only effect, or effect the other way; inactive = flat fitted curve, though single readings scatter. Potencies of inconclusive entries are left out as doubtful fits.
# Assay: VP16 counterscreen qHTS for inhibitors of ROR gamma transcriptional activity;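 note: Gal4-VP16 expression switched on by copper sulfate through the metallothionein promoter; nearly all actives have a fitted effect of over 50% in size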
# Conditions: Drosophila S2 Gal4-VP16 UAS-luciferase, luminescence, 20 h; activity, negative = inhibition: at 53.6 µM (top of the series)
# % is set by controls: 0 for no effect and ±100 for the full control effect; potency is the fitted concentration of half-maximal effect; tags give direction and shape of the fitted curve.
SMILES,Potency,"activity, negative = inhibition"
CC(C)c1ccc(NC(=S)NN2CCOCC2)cc1,"inconclusive [inhibitor, single point]",
O=C(/C=C/c1ccc(OC(F)F)cc1)Nc1cccc(S(=O)(=O)NC2=NCCCCC2)c1,"inconclusive [inhibitor, single point]",
CC1=CC(=C(c2ccc(N)cc2)c2ccc(N)cc2)C=CC1=N,"inconclusive [inhibitor, partial curve]",
CCN1C(=O)[C@H]2[C@H]3[C@H](O)[C@H](O)C/C(=N/O[C@@H](C)c4cn([C@H](CO)Cc5ccccc5)nn4)[C@@H]3CC[C@@H]2C1=O,,inactive: 5.53% [at 10 µM] and inactive: -1.39% [at 10 µM]
CCCn1c2ccccc2c2cc(C(=O)O)ccc21,"inconclusive [inhibitor, single point]",
CN=C1SC(CC(=O)Nc2ccccc2F)C(=O)N1/N=C/c1ccc(O)c(OC)c1 (centres undefined),"inconclusive [inhibitor, single point]",
CC1(C)Cc2ccccc2C(=O)N1,inactive,
CCOC(=O)OCC1OC(C#Cc2ccc(C)cc2C)C=CC1OC(=O)OCC (centres undefined),,inactive: 10.5% [at 10 µM]
CCN(CC)C(=O)CSc1nc2ccccc2c(=O)n1CC1CCCCC1,inactive,
O=S(=O)(c1ccc(Cl)cc1)N1CCN(C(=S)Nc2ccc(F)c(Cl)c2)CC1,"inconclusive [inhibitor, single point]",
COC(=O)c1cc(OC)c(OC)cc1NCC(=O)Nc1ccc(C)cc1,inactive,
CSc1ccccc1NC(=O)C1CCCO1 (centres undefined),inactive,
CCCN1C(=O)C(O)(CC(=O)c2cccc(OC)c2)c2ccccc21 (centres undefined),active: 14.1 µM,
CCCc1cc(C(=O)NNC(=S)NC2CCCCC2)cs1,"inconclusive [inhibitor, single point]",
Cc1ccc(Nc2nc(N/N=C/c3c[nH]c4ccccc34)nc(N3CCOCC3)n2)cc1,"inconclusive [inhibitor, single point]",
O=C1c2ccc(Oc3ccc4c(c3)C(=O)N(CCCCO)C4=O)cc2C(=O)N1CCCCO,"inconclusive [inhibitor, partial curve, poor fit]",
Fc1cccc(Cl)c1Cn1nnc2c(-n3ccnc3)ncnc21,"inconclusive [inhibitor, single point]",
O=C(N/N=C/c1ccc[nH]1)c1ccccc1OCc1ccccc1Cl,"inconclusive [inhibitor, single point]",
COc1ccc(OCCOCCOc2ccc(C)cc2[N+](=O)[O-])cc1,inactive,
COc1ccc(NC(=O)c2ccc(C(=O)c3cc(OC)ccc3OC)cc2)cc1,"inconclusive [inhibitor, partial curve]",
N#CCSc1nnc(C2CCCCC2)n1Cc1ccccc1,inactive,
CC(C)c1ccc(/C=N/Nc2ccc(C(=O)O)cc2)cc1,active: 0.251 µM,
COc1ccccc1CN(Cc1nc2ccccc2c(=O)[nH]1)C(=O)Nc1ccccc1C,"inconclusive [inhibitor, single point]",
O=C1C=CC(=O)N1c1ccc(N2CCCCC2)cc1,active: 8.91 µM,
CCC(C)NC(=O)Cn1cc(S(=O)(=O)N2CCN(c3ccccc3F)CC2)c2ccccc2c1=O (centres undefined),inactive,

SMILES,Potency,"activity, negative = inhibition"
CC(C)Cc1ccc(CN2CCCC(NC(=O)c3ccoc3)C2)cc1 (centres undefined),"inconclusive [inhibitor, single point]",
CCCC(=O)Nc1ccc(C(=O)NNC(=O)c2ccco2)cc1,"inconclusive [inhibitor, single point]",
Cc1ccc2sc(NNC(=O)C3COc4ccccc4O3)nc2c1C (centres undefined),active: 8.91 µM,
COc1ccc([N+](=O)[O-])cc1NC(=O)CSc1nc(C)cc(C)n1,inactive,
Cc1ccsc1C(=O)NNC(=S)NC1CCCCC1,active: 11.2 µM,
N=c1c(C(=O)NCC2CCCO2)cc2c(=O)n3ccccc3nc2n1Cc1ccccc1Cl (centres undefined),inactive,
FC(F)Oc1ccc(NC(=S)NC2CCCCCCC2)cc1,active: 10 µM,
CCN(CC)c1nc(Nc2ccccc2)nc(Oc2ccc(C(=O)OC)cc2)n1,"inconclusive [inhibitor, single point]",
CCCc1cc(Nc2cccc(OCC)c2)n2ncnc2n1,"inconclusive [inhibitor, single point]",
CCCCN1C(=S)NC[C@@H]1Cc1ccccc1,active: 7.94 µM,
O=c1c2c3c(sc2n2cnnc2n1CCc1ccccc1)CCCC3,inactive,
CCSc1nnc(NC(=O)C(CC)(C(F)(F)F)C(F)(F)F)s1,active: 15.8 µM,
CN1CCC(Nc2ncc3ncnc(Nc4ccc(F)c(Cl)c4)c3n2)CC1,inactive,
O=C(Nc1cccc(-c2cccc(Cl)c2)c1)C1CCN(Cc2ccccn2)CC1,"inconclusive [inhibitor, single point]",
CCCCNC(=O)c1c[nH]c2ccc(S(=O)(=O)Nc3ccc(OCC)cc3)cc2c1=O,"inconclusive [inhibitor, single point]",
Cc1ccc(Nc2nnc(SC/C(O)=C(\C#N)c3nc4ccccc4[nH]3)s2)c(C)c1,"inconclusive [inhibitor, single point]",
CCC(C)(C)NC(=O)C(c1ccc(C)cc1)N(Cc1ccco1)C(=O)Cn1nnc2ccccc21 (centres undefined),"inconclusive [inhibitor, partial curve]",
Oc1ccc(Br)cc1-c1cc(-c2ccccc2F)[nH]n1,active: 3.55 µM,
CC(C)(C)NC(=O)NC(=O)COc1ccc(Br)cc1Br,inactive,
CN(C(=S)Nc1ccc(F)cc1)C(c1ccccc1)c1ccccc1,"inconclusive [inhibitor, single point]",
Cn1nnnc1N=N/C(=N/Nc1ccccc1)c1ccccc1,active: 2.24 µM,
CCOC(=O)C1=C(N)OC2=C(C(=O)CC(C)(C)C2)C1c1ccccc1OCC#N (centres undefined),"inconclusive [inhibitor, single point]",
Cc1ccc(C(C(=O)NCC2CCCO2)N(C(=O)c2snc(C(N)=O)c2N)c2ccccc2)o1 (centres undefined),inactive,
COc1ccc(-c2csc(NC(=S)NC(=O)c3cccs3)n2)cc1Br,active: 11.2 µM,
O=C(NCCCc1ccccc1)C1CCC(=O)N(Cc2ccc(Cl)cc2)C1 (centres undefined),"inconclusive [activator, single point]",

SMILES,Potency,"activity, negative = inhibition"
COc1ccc(CC2(CO)CCN(Cc3cccc4nccnc34)CC2)cc1,inactive,
O=C(c1cccc(F)c1)N1CCC2(CC1)CN(c1cccc(-c3ccccc3)c1)C2,"inconclusive [inhibitor, single point]",
CCCNC(=O)Cc1c(OC)ccc2cc(Br)ccc12,"inconclusive [activator, single point]",
CC(C)(C)c1nnc(NC(=O)c2cc(-c3ccccc3)nc3ccccc23)s1,active: 10 µM,
O=S(=O)(Nc1cccc(-c2nnco2)c1)c1ccc(F)cc1F,inactive,
CC(C)(C)C1CCC(=NNS(=O)(=O)c2ccc(Br)cc2)CC1 (centres undefined),inactive,
COc1cc(OC)c(-c2c3cc(O)c(=O)cc-3oc3cc(O)c(O)cc23)cc1OC,"inconclusive [inhibitor, single point]",
CCCCn1c(/C=C/c2ccco2)nc2ccccc21,"inconclusive [inhibitor, single point]",
COc1cc(/C=N/Nc2ccc(C(=O)O)cc2)ccc1O,active: 2.24 µM,
Cc1ccc(OCC(=O)NNC(=O)CSc2ncc(C#N)c(N)n2)cc1,"inconclusive [inhibitor, full curve, poor fit]",
Cc1ccc(NC(=S)N2CCCCCC2)cc1,"inconclusive [inhibitor, single point]",
COc1ccc(O)c(-c2cc(-c3cccc(Br)c3)n[nH]2)c1,"inconclusive [inhibitor, single point]",
Cc1c(CCC(=O)N2CCC(C(=O)O)CC2)c(=O)oc2cc3oc4c(c3cc12)CCCC4,"inconclusive [inhibitor, partial curve]",
Cc1nc(CNC(=O)CC2C(=O)NCCN2Cc2ccc(F)cc2)cs1 (centres undefined),inactive,
Cc1ccccc1NC(=S)N1CCN(Cc2ccccc2)CC1,"inconclusive [inhibitor, single point]",
CCCSCCCNC(=O)Cn1nc(CC)n2c(cc3c(OC)cccc32)c1=O,inactive,
N/C(Cc1ccc(Cl)cc1Cl)=N\OC(=O)c1cccs1,"inconclusive [inhibitor, single point]",
C/C(=N\OCC(=O)Nc1ccc(OC(F)(F)F)cc1)c1ccc2c(c1)OCCO2,"inconclusive [inhibitor, single point]",
CCc1cccc2c1NC(=O)C21N2CCCC2C(C(=O)c2ccc3ccccc3c2)C12C(=O)Nc1ccccc12 (centres undefined),"inconclusive [activator, single point]",
COC(=O)c1ccc(Oc2cc(C)nc(-n3nc(C)cc3C)n2)cc1,active: 3.16 µM,
O=C(c1ncn[nH]1)N1CCN(c2nc(-c3ccccc3)cs2)CC1,"inconclusive [inhibitor, single point]",
Cc1ccc(C(=O)NCC(=O)OCC(=O)/C=C2\N(C)c3ccccc3C2(C)C)cc1C,"inconclusive [inhibitor, single point]",
C/C(=N\NC(=S)NC1CCCCC1)c1cccc(C(F)(F)F)c1,active: 2.51 µM,
O=C(NNC1=Nc2cccc3cccc1c23)c1ccccc1Br,active: 1.12 µM,
